Test [1] deals with T1, Calmodulin (recombinant, produced in-house) (human, UniProt P0DP23).
T1 construct: called human CaM in the HDX methods; The His6 tag was cleaved with TEV 'for applications where the absence of His6 tag was desirable'; also called CaM; Ca^2+-CaM; source: E. coli BL21-CodonPlus-RIL, purified (Ni-NTA, SEC)
As to the kind of experiment: cross-linking; DMTMM (zero-length) cross-linking with mass spectrometry; CHK2 and CaM 1:5 molar ratio; 50 mM HEPES pH 7.5, 2 mM CaCl2; 30 min at room temperature. As to conditions: both partners purified.

In another test the target is T2, His6-tagged calmodulin (human, UniProt P0DP23).
T2 construct: called human CaM in the HDX methods; His6 tag detected with anti-His6-HRP in the far-Western; also called His6-CaM; CaM; source: E. coli BL21-CodonPlus-RIL, purified (Ni-NTA, SEC); not shown: His6, N-terminal, kept
As to the kind of experiment: far-Western, overlay or dot blot; full-length recombinant proteins spotted on nitrocellulose (2 µl; ~2 µg), probed overnight with His6-CaM (1 mg/ml; 1:1000 dilution) with CaCl2 (200 µM in the methods, 500 µM in the legend); detected with anti-His6-HRP. Conditions: both partners purified.

The values below come from paper PMC12751073, “Unconventional binding of calmodulin to CHK2 kinase inhibits catalytic activity” (Biochemical Journal, 2025).

B1: Full-length recombinant human CHK2 ([…]) (enzyme)
chain: not shown
notes: human CHK2, called full-length with […] stated in the methods; also called CHEK2; Checkpoint kinase 2; source: E. coli BL21-CodonPlus-RIL, purified (glutathione resin, TEV cleavage, SEC); not shown: GST, N-terminal, cleaved
As for B1, the binding result (in test [1]; with His6-tagged calmodulin) was “binds” throughout.
